Assay results from PubChem BioAssay (Tox21).
“And” between values parts separate entries of the source, which are not always exact repeats. Equal values may be shown once. Inconclusive results, whose numbers are uncertain, are shown with a selection of clear calls. For part of these data: A potency beside an inconclusive call is a rough fit, not a confirmed value. A structure can be active in one record and inactive in another. The source made the active and inactive calls. Unless noted, calls come from the whole dose curve; as a rule, active = well fitted curve in the direction sought with a large enough effect in the repeat runs; inconclusive = weak or mixed curves; inactive = no such curve, though single readings can be large; an effect the other way counts as inactive or inconclusive.

Legend:
[1] = qHTS assay to identify small molecule antagonists of the estrogen related receptor (ERR) signaling pathway from Tox21 library - cell viability counter screen (AID 1224834); note: potency is the fitted concentration of half-maximal effect; nearly all actives have a fitted effect of over 30% in size
Summary of the method: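 Compounds in DMSO were pinned onto ERR cells that had been incubated for 6 h, and the plates were held at 37 C for 17.5 h. CellTiter-Fluor reagent was then added and fluorescence was measured after 30 min.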

[2] = qHTS assay to identify small molecule agonists of the constitutive androstane receptor (CAR) signaling pathway - cell viability counter screen (AID 1224836); note: potency is the fitted concentration of half-maximal effect; nearly all actives have a fitted effect of over 45% in size
Summary of the method: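 HepG2-CYP2B6-hCAR, 2500 cells/well, 4 h pre-incubation; cpd 15 conc + PK11195 0.75 uM final; 23 h, 37 C/5% CO2; CellTiter-Fluor, fluorescence.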

[3] = target: Nuclear receptor subfamily 1 group I member 3 (Homo sapiens) (UniProt Q14994); assay: qHTS assay to identify small molecule antagonists of the constitutive androstane receptor (CAR) signaling pathway (AID 1224838);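 note: HepG2 cells stably expressing hCAR with CYP2B6 luciferase reporter stimulated by CITCO; potency is the fitted concentration of half-maximal effect; nearly all actives have a fitted effect of over 40% in size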
Summary of the method: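 Luminescence from a CYP2B6-2.2kb promoter reporter in hCAR-expressing HepG2 cells reflects CAR signaling. Cells received compounds at 15 concentrations and 50 nM CITCO (final), then incubated 24 h at 37 C/5% CO2.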

[4] = target: Nuclear receptor subfamily 1 group I member 3 (Homo sapiens) (UniProt Q14994); assay: qHTS assay to identify small molecule agonists of the constitutive androstane receptor (CAR) signaling pathway (AID 1224839);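 note: HepG2 cells stably carrying human CAR and a CYP2B6 luciferase reporter; % is set by controls: 0 for no effect and ±100 for the full control effect; nearly all actives have a fitted effect of over 15% in size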
Summary of the method: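 HepG2-CYP2B6-hCAR cells, 2500/well, 4 h pre-incubation; compounds 15 conc.; PK11195 0.75 uM final; 24 h, 37 C/5% CO2; ONE-Glo luciferase read.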

[5] = qHTS assay to identify small molecule antagonists of the estrogen related receptor signaling pathway with the pleiotropic PPARgamma coactivator (PGC) from Tox21 10K library - cell viability counter screen (AID 1224840; active = well fitted cell-killing curve with a large enough effect in the repeat runs, not every such curve was filed as active; inconclusive = weak or mixed curves, or effect the other way; inactive = no such curve, though single readings can be large or run the other way; note: potency is the fitted concentration of half-maximal effect; nearly all actives have a fitted effect of over 40% in size)
Summary of the method: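 Cell viability is measured by CellTiter-Fluor fluorescence in PGC/ERR cells that receive compounds after a 6-hour attachment period and are then incubated 17.5 hours at 37 C.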

[6] = A CellTox Green Cytotoxicity Assay to monitor cytotoxicity in HepG2 cells - 40 hour (AID 1224879); note: nearly all actives have a fitted effect of over 40% in size; note: potency is the fitted concentration of half-maximal effect
Summary of the method: (§1)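 First, HepG2 cells (600/well) mixed with reagent were plated; second, after 5 h at 37 C they received compounds via pintool; third, fluorescence was measured at 0 h through 40 h at 8 h intervals.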

[7] = qHTS RealTime-Glo MT Cell Viability Assay in HEK293 cells - 0 hour (AID 1224880); note: potency is the fitted concentration of half-maximal effect; nearly all actives have a fitted effect of over 45% in size
Summary of the method: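 600 HEK293 cells per well, dispensed already mixed with RealTime-Glo MT reagents. Compound dosing came 5 h later. The same wells were read for luminescence at 0, 8, 16, 24, 32 and 40 h of exposure at 37 C.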

[8] = A CellTox Green Cytotoxicity Assay to monitor cytotoxicity in HEK293 cells - 32 hour (AID 1224881); note: % is set by controls: 0 for no effect and ±100 for the full control effect; nearly all actives have a fitted effect of over 40% in size
Summary of the method: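 Dead-cell fluorescence measured kinetically: asymmetric cyanine dye, HEK293, 600 cells/well, 5 h settle, 23 nL cpd/DMSO, 37 C, reads 0–40 h every 8 h.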

[9] = A CellTox Green Cytotoxicity Assay to monitor cytotoxicity in HepG2 cells - 32 hour (AID 1224883); note: potency is the fitted concentration of half-maximal effect; nearly all actives have a fitted effect of over 50% in size
Summary of the method: as §1

[10] = qHTS assay to identify small molecule antagonists of the estrogen receptor alpha (ER-alpha) signaling pathway using the BG1 cell line in the presence of 0.1 nM 17-beta-estradiol - cell viability counter screen (AID 1259241)
Summary of the method: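 VM7Luc4E2, 4,000 cells/well, phenol red-free medium + 10% charcoal-stripped FBS; 24 hr plating; cpd + 0.1 nM E2 final, 22 hr 37C/5% CO2; CellTiter-Fluor 30 min, fluorescence.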

[11] = qHTS assay to identify small molecule antagonists of the androgen receptor (AR) signaling pathway using the MDA cell line in the presence of 0.5 nM R1881 - cell viability counter screen (AID 1259242); note: potency is the fitted concentration of half-maximal effect; nearly all actives have a fitted effect of over 45% in size
Summary of the method: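 qHTS format. MDA-kb2 (MMTV-luc, AR/GR responsive) + cpd + 0.5 nM R1881 final, 16 hr 37C/0% CO2 → CellTiter-Fluor 30 min → fluorescence intensity.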

[12] = qHTS assay to identify small molecule agonists of the sonic hedgehog signaling (Shh) pathway - cell viability counter screen (AID 1259366); note: potency is the fitted concentration of half-maximal effect; nearly all actives have a fitted effect of over 50% in size
Summary of the method: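 Cytotoxicity counter screen run in the same wells as the Shh reporter assay. NIH/3T3 cells carrying a Gli1 response element–driven luciferase were treated with DMSO-dissolved compounds for 24hr, and live-cell protease activity was measured with CellTiter-Fluor.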

[13] = qHTS assay to identify small molecule antagonists of the sonic hedgehog signaling (Shh) pathway - cell viability counter screen (AID 1259367); note: potency is the fitted concentration of half-maximal effect; nearly all actives have a fitted effect of over 55% in size
Summary of the method: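 Viability was read by CellTiter-Fluor fluorescence in the same wells, reagent added 23 hr into compound treatment and incubated 1 hr at 37C. The 3T3 Gli1-Luc reporter cells (2,000/well) received conditioned medium after compound and ran 24 hr.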

[14] = qHTS assay to identify small molecule antagonists of the sonic hedgehog signaling (Shh) pathway (AID 1259369; calls by dose curve; note: potency is the fitted concentration of half-maximal effect; nearly all actives have a fitted effect of over 45% in size)
Summary of the method: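 Stable Gli1-Luc reporter NIH/3T3 clone; quantitative HTS in stimulated mode with conditioned medium. Luminescence measured after 24hr compound treatment at 37 C.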

[15] = qHTS assay to identify small molecule agonists or antagonists of the thyroid stimulating hormone receptor (TSHR) signaling pathway - wild type cell line counter screen (AID 1259384; calls by dose curve; note: potency is the fitted concentration of half-maximal effect; for cAMP activity change: % is set by controls: 0 for no effect and ±100 for the full control effect); conditions: HEK293 wild type, cAMP HTRF counter-screen; cAMP activity change: at 92.4 µM (top of the series), stronger effect = higher value unless noted
Summary of the method: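 Counter screen in untransfected Hek293: compounds (15-point titration, triplicate) plus phosphodiesterase inhibitor Ro20-1724 added after 18 h plating; 30 min RT. Intracellular cAMP via competitive d2/cryptate immunoassay, 1 h incubation.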

[16] = qHTS assay to identify small molecule antagonists of the progesterone receptor (PR) signaling pathway - cell viability counter screen (AID 1346798); note: potency is the fitted concentration of half-maximal effect; nearly all actives have a fitted effect of over 50% in size
Summary of the method: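 HEK293T PR-UAS-bla, 2% charcoal-stripped FBS; 4 hr pre-plate; cpd + R5020, 16 h 37C; LiveBLAzer read first; then CellTiter-Glo 30 min RT, luminescence.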

[17] = target: Thyrotropin-releasing hormone receptor (Homo sapiens) (UniProt P34981); assay: qHTS assay to identify small molecule antagonists of the thyrotropin-releasing hormone receptor (TRHR) signaling pathway (AID 1346877; active = well fitted inhibition curve with a large enough effect in the repeat runs, not every such curve was filed as active; inconclusive = weak or mixed curves; note: potency is the fitted concentration of half-maximal effect)
Summary of the method: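 Kinetic fluorescence (3 min, 1 s resolution) following stimulation with TRH at 1 nM final; HEK293 cells bearing human TRHR; 5 min compound preincubation at RT; concentration-response over 15 points, triplicates.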

[18] = Human pregnane X receptor (PXR) small molecule agonists, qHTS cell viability counter screen (AID 1346977); note: potency is the fitted concentration of half-maximal effect; nearly all actives have a fitted effect of over 50% in size
Summary of the method: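 PXR-Luc HepG2, 2,000 cells/well, 5% charcoal-stripped FBS; 5hr settle; cpd 24hr, 37C/5% CO2; CellTiter-Fluor at 23hr, read 1hr later (fluorescence).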

[19] = Caspase-3/7 induction in HepG2 cells by small molecules, qHTS cell viability counter screen (AID 1346981); note: potency is the fitted concentration of half-maximal effect; nearly all actives have a fitted effect of over 30% in size
Summary of the method: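 In this quantitative HTS counter screen, compounds delivered in DMSO were left on unmodified HepG2 cells for 16 hr at 37 C. Viability was then determined fluorometrically with CellTiter-Fluor, in parallel with caspase-3/7 induction in the same wells.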

[20] = target: Cytochrome P450 1A2 (Homo sapiens) (UniProt P05177); assay: Cytochrome P450 Family 1 Subfamily A Member 2 (CYP1A2) small molecule antagonists: luciferase reporter qHTS assay (AID 1671199)
Summary of the method: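 Steps: enzyme-substrate mix dispensed; test compounds and furafylline control pinned in; 10 min room temperature; NADPH regeneration solution added, 1 h; reaction stopped with luciferin detection reagent; luminescence read after 20 min.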
Tags give direction and shape of the fitted curve.

Chain of UniProt Q14994 (Q14994 whole entry, looked up): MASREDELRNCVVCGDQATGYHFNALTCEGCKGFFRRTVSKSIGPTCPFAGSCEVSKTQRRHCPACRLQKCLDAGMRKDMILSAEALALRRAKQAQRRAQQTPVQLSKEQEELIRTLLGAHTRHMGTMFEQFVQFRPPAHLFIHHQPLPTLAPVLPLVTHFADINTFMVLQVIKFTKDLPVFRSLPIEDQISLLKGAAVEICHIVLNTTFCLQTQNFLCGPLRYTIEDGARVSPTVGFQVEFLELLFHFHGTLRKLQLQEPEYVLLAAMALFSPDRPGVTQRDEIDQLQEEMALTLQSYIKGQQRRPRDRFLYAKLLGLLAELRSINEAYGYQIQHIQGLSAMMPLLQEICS
Chain of UniProt P05177 (P05177 whole entry, looked up): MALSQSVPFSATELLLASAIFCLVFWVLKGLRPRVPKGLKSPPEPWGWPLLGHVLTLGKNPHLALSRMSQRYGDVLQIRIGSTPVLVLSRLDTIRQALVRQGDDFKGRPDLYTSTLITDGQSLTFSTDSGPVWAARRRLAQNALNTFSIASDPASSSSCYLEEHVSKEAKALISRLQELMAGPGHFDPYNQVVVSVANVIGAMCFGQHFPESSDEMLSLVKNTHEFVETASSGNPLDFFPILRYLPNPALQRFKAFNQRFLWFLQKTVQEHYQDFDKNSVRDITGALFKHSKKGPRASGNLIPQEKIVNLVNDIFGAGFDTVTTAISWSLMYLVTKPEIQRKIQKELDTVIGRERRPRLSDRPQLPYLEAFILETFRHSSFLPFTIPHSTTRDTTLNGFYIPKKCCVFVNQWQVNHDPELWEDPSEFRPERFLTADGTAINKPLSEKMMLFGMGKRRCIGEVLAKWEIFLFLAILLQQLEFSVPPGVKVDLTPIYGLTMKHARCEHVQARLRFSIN
Chain of UniProt P34981 (P34981 whole entry, looked up): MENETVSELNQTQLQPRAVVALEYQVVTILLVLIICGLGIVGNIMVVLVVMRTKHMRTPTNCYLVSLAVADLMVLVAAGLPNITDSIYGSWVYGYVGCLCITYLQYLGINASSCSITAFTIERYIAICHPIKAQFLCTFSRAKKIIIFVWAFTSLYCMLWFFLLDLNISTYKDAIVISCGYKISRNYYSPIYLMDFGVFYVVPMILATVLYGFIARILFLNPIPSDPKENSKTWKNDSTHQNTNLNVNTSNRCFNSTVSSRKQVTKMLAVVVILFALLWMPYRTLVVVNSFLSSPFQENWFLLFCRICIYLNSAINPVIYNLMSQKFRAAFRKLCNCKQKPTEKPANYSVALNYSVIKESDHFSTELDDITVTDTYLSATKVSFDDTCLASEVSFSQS

SMILES: O=C(O)c1[nH]n(-c2ccc(S(=O)(=O)O)cc2)c(=O)c1N=Nc1ccc(S(=O)(=O)O)cc1
- Potency [1]: active: 26.6 µM and active: 27.4 µM and active: 28.6 µM
- Potency [2]: inconclusive: 26.6 µM [cytotoxic, partial curve, poor fit] and active: 30.7 µM and active: 45.4 µM
- Potency [3]: inconclusive: 27.4 µM [inhibitor, partial curve, poor fit]
- Potency [4]: inactive
- Potency [5]: inconclusive: 29.8 µM [cytotoxic, single point] and active: 27.4 µM and active: 45.4 µM
- Potency [6]: inactive and inconclusive: 182 nM [activator, single point]
- Potency [7]: inconclusive: 49.1 µM [falling, partial curve]
- Potency [8]: inactive
- Potency [9]: inconclusive: 0.182 µM [activator, single point]
- Potency [10]: inconclusive: 29.8 µM [cytotoxic, partial curve]
- Potency [11]: inconclusive: 23.7 µM [cytotoxic, partial curve, poor fit] and inconclusive: 54.6 µM [cytotoxic, partial curve] and inconclusive: 28.6 µM [cytotoxic, partial curve]
- Potency [12]: inconclusive: 23.7 µM [cytotoxic, partial curve] and active: 27.4 µM and active: 25.5 µM
- Potency [13]: inconclusive: 13.3 µM [cytotoxic, partial curve] and active: 30.7 µM and active: 25.5 µM
- Potency [14]: active: 57.1 µM
- Potency [15]: inconclusive: 68.8 µM [falling, partial curve, poor fit]
- cAMP activity change [15]: inconclusive: -6.22%
- Potency [16]: inconclusive: 1.14 µM [rising, full curve, poor fit]
- Potency [17]: inconclusive: 67.7 µM [inhibitor, single point]
- Potency [18]: inconclusive: 29.8 µM [cytotoxic, partial curve] and active: 39.8 µM and active: 45.4 µM
- Potency [19]: active: 29.8 µM and active: 27.4 µM and active: 50.9 µM
- Potency [20]: inactive
